Reference: paper PMC10315710, “Diacylglycerol kinase ζ interacts with sphingomyelin synthase 1 and sphingomyelin synthase‐related protein via different regions” (FEBS Open Bio, 2023)
These are yes or no findings as the source states them, for the method shown. Binding seen in cells or lysates may run through a third protein. Some binding calls cover weakened binding; strength is not graded here. Where a sequence is shown, tags or fusion partners need not be part of it. Each block holds one molecule with its values, some of them ahead of it.

Amino acid sequences for entries named in this document (tags omitted). A change or cut given only in a name is not applied to a line headed by its entry.
UniProt Q13574: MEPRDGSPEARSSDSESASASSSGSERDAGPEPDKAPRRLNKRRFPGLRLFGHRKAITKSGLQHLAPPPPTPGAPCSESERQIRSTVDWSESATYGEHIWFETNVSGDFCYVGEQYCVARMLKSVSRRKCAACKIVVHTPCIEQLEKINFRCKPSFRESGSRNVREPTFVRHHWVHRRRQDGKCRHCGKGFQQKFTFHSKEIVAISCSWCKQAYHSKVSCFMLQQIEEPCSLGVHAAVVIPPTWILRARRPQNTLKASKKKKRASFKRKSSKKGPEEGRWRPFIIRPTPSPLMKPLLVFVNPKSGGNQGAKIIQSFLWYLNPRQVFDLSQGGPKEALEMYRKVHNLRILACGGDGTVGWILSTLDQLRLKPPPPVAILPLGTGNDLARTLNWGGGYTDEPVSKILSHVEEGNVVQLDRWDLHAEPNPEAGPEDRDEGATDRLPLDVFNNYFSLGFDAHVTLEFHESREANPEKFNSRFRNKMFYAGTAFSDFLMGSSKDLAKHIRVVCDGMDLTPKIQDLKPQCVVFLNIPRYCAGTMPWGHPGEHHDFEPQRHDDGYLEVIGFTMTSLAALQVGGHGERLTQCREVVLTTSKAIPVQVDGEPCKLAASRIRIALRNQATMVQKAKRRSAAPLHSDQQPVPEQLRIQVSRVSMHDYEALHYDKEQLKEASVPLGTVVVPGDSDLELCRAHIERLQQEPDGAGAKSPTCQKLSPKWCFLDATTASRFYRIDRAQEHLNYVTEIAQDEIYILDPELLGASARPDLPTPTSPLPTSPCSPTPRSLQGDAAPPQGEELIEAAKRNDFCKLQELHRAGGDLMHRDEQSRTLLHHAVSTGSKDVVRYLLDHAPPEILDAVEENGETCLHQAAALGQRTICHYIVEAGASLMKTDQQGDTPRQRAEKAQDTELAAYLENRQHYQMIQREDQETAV

How the values were obtained:
[1] = target: T1, SMS1‐V5 (C-terminal V5-tagged human sphingomyelin synthase 1) (human) (UniProt Q86VZ5); assay: co-IP; HEK293 cell lysates expressing V5-tagged SMS1, SMS2 or SMSr and 3×FLAG-tagged DGK isozymes; immunoprecipitation with anti-V5 antibody and Protein A/G PLUS-agarose; western blot with anti-FLAG and anti-V5
T1 sequence: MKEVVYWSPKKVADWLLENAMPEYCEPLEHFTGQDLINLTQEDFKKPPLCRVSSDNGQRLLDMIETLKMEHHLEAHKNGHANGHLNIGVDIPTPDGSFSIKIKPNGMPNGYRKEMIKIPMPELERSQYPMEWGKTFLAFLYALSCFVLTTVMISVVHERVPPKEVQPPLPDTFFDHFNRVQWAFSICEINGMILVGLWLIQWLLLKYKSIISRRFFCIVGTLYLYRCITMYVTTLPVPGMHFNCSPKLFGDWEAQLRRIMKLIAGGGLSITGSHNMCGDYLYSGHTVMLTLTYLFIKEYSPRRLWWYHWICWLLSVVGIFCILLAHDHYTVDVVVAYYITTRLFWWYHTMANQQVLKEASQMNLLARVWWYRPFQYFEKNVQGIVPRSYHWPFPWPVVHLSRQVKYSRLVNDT

[2] = target: T2, SMSr‐V5 (C-terminal V5-tagged human sphingomyelin synthase-related protein) (human) (UniProt Q96LT4); assay: as above
T2 sequence: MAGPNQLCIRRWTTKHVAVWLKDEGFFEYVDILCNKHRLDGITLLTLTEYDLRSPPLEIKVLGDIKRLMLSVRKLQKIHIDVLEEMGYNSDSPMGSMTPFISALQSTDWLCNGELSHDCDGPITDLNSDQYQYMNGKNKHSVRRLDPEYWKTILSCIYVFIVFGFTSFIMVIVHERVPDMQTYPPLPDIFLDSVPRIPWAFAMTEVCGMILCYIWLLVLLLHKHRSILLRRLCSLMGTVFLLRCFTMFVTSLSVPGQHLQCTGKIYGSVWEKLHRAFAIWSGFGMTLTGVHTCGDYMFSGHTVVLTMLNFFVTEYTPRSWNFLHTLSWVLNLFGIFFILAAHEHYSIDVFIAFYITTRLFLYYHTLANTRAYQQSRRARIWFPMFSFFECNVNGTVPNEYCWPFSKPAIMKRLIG

[3] = target: T3, SMS2‐V5 (C-terminal V5-tagged human sphingomyelin synthase 2) (human) (UniProt Q8NHU3); assay: as above
T3 sequence: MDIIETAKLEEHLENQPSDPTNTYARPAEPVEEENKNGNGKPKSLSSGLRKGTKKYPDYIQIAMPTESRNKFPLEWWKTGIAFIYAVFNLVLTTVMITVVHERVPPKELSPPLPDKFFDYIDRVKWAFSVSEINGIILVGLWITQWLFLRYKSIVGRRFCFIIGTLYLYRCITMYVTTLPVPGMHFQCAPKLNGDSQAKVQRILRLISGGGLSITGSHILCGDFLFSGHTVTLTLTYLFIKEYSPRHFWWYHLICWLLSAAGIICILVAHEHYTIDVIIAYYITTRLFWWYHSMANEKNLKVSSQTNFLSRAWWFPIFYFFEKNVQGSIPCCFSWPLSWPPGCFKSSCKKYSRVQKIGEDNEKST

[4] = target: T4, AcGFP‐SMSr‐NT (human) (UniProt Q96LT4); assay: co-IP; HEK293 cell lysates expressing AcGFP-tagged SMS fragments (or AcGFP alone) and 3×FLAG-tagged DGKζ or its deletion mutants; immunoprecipitation with anti-GFP antibody and Protein A/G PLUS-agarose; western blot with anti-GFP and anti-FLAG
T4 sequence: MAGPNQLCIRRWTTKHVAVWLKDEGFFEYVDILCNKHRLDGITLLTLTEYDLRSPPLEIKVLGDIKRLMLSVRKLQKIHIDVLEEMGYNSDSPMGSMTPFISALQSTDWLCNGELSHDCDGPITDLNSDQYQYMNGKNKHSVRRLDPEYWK

[5] = target: T5, AcGFP‐SMS1‐CT (human) (UniProt Q86VZ5); assay: as above
T5 sequence: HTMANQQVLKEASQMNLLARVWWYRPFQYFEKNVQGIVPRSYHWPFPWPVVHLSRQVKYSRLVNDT

[6] = target: T6, AcGFP‐SMS1‐NT (human) (UniProt Q86VZ5); assay: as above
T6 sequence: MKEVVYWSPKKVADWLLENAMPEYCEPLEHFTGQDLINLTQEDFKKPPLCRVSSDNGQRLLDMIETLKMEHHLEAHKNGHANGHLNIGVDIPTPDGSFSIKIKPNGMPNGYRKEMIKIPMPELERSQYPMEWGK

binding [1]: binds
binding [2]: binds
binding [3]: no binding
binding [4]: binds
binding [5]: binds
binding [6]: no binding
Molecule: 3×FLAG‐tagged DGKζ‐FL (from UniProt Q13574 1-928) (enzyme)

binding [4]: binds
binding [5]: binds
Molecule: 3×FLAG‐DGKζ‐CD‐b (from UniProt Q13574 433-640) (domain or fragment)

Second part, the molecule before the results:

Molecule: 3×FLAG‐DGKζ‐CD (from UniProt Q13574 284-640) (domain or fragment)
binding [5]: binds

B1: 3×FLAG‐DGKκ (enzyme, UniProt Q5KSL6 1-1271)
chain: MDRGAAAAQGTAPPQDGEQPAESPEPPPPWPPPPPPPAPPPAPPLLSEASPEPIPEPCPELAPGPCPEATSESATELYTEPTPEPATEPASEPAPEPATEPAPEPATEPAPEPAPEPATESAPEPTPEPALESVPEPAPELTPEVAPELAPEPTPEPVTELAPEFCPEAAPEFRPSPAPCLLQCPVDTRERGLKTSPSPSPSPSPRTPMSWSRIKKILKEGPMLKNCNSFKRWKLRYFLVQGQKLYFAHHPAFAHFETIDLSQATVAESSCRNLCHSFCVITPQRKITLAAPNRKDMEEWINIIKTIQQGEIYKIPAAENNPFLVGMHCWYSSYSHRTQHCNVCRESIPALSRDAIICEVCKVKSHRLCALRASKDCKWNTLSITDDLLLPADEVNMPHQWVEGNMPVSSQCAVCHESCGSYQRLQDFRCLWCNSTVHDDCRRRFSKECCFRSHRSSVIPPTALSDPKGDGQLVVSSDFWNLDWSSACSCPLLIFINSKSGDHQGIVFLRKFKQYLNPSQVFDLLKGGPEAGLSMFKNFARFRILVCGGDGSVSWVLSLIDAFGLHEKCQLAVIPLGTGNDLARVLGWGAFWNKSKSPLDILNRVEQASVRILDRWSVMIRETPRQTPLLKGQVEMDVPRFEAAAIQHLESAATELNKILKAKYPTEMIIATRFLCSAVEDFVVDIVKAWGQIKQNNTAIVSVILKSDLMYDRLSVLIDVLAEEAAATSAEKSATEYADSSKADRKPFIPQIDHIAKCKLELATKAQSLQKSLKLIIFQVEQALDEESRQTISVKNFSSTFFLEDDPEDINQTSPRRRSRRGTLSSISSLKSEDLDNLNLDHLHFTPESIRFKEKCVMNNYFGIGLDAKISLDFNTRRDEHPGQYNSRLKNKMWYGLLGTKELLQRSYRKLEERVHLECDGETISLPNLQGIVVLNITSYAGGINFWGSNTATTEYEAPAIDDGKLEVVAIFGSVQMAMSRIINLHHHRIAQCHEVMITIDGEEGIPVQVDGEAWIQRPGLIKIRYKNAAQMLTRDRDFENSMKMWEYKHTEIQAAPQPQLDFQDSQESLSDEEYAQMQHLARLAENLISKLNDLSKIHQHVSVLMGSVNASANILNDIFYGQDSGNEMGAASCIPIETLSRNDAVDVTFSLKGLYDDTTAFLDEKLLRSAEDETALQSALDAMNKEFKKLSEIDWMNPIFVPEEKSSDTDSRSLRLKIKFPKLGKKKVEEERKPKSGQSVQSFIGNLWHRRHREDEAEGDDPLTPSRSQL
binding [1]: no binding
binding [2]: no binding
binding [3]: no binding
